Laboratory results: a collection of fitness landscapes (doi:10.1038/s41467-024-54723-y)
Whole data set: some 18,000 sequences, median “TetR repression strength (sort-seq, GFP reporter)” near 0.23, cut for the highest 2% near 0.68. The list shows a part of the results.

Target: TetR (class B, Tn10) (UniProt P04483)
Experiment: TetR repression strength (sort-seq, GFP reporter) (relative to tetO2 = 1); higher = stronger repression
Conditions: E. coli
Summary of the method: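 Repression strength was calculated by subtracting the read-weighted mean bin from the top bin index plus one and dividing by the unaltered operator's value. The plasmid library was low-copy in E. coli SIG10-MAX, with eight randomized operator positions between a constitutive promoter and sfGFP and constitutive TetR. Cultures grew 5 h at 37 °C in LB containing 50 µg/mL chloramphenicol before 10^6 cells were sorted by FACS into 13 fluorescence bins, each sequenced on Illumina. Three independent transformations were averaged for members having ≥30 reads in all replicates and a CV ≤0.5.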

Sequence of UniProt P04483 (P04483 whole entry): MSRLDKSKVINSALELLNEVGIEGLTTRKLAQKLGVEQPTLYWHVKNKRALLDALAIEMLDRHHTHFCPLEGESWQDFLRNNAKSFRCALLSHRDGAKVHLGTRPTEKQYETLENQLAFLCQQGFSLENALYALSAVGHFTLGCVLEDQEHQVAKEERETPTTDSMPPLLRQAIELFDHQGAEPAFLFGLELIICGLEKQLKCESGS

Sequence | TetR repression strength
TCCCGAGTAGTCACTGAGA | 0.231
TCCCGTGTAGTGCTCGAGA | 0.212
TCCCCACTAGTATGGGAGA | 0.262
TCCCGTTCAGTCGCCGAGA | 0.0928
TCCCCACTAGTCCGGGAGA | 0.255
TCCCTGATAGTTTAAGAGA | 0.119
TCCCAGCCAGTCAGAGAGA | 0.296
TCCCTGTCAGTGTGTGAGA | 0.198
TCCCACTTAGTCGGGGAGA | 0.428
TCCCATAAAGTATAGGAGA | 0.128
TCCCAATTAGTAGAGGAGA | 0.26
TCCCGGGAAGTGCCAGAGA | 0.215
TCCCAGAGAGTGGACGAGA | 0.418
TCCCTGCGAGTGTTCGAGA | 0.201
TCCCTAGCAGTGGAGGAGA | 0.218
TCCCGCGCAGTCTAAGAGA | 0.281
TCCCGGTGAGTTTCGGAGA | 0.14
TCCCGGTCAGTGGAAGAGA | 0.458
TCCCATGGAGTGTCGGAGA | 0.279
TCCCAGTTAGTGAACGAGA | 0.238
TCCCCGTGAGTTTTGGAGA | 0.159
TCCCGTGCAGTGAGAGAGA | 0.236
TCCCATTAAGTGGTGGAGA | 0.179
TCCCGGAGAGTAGCAGAGA | 0.313
TCCCTCTGAGTGTTCGAGA | 0.158
TCCCGAATAGTTTGGGAGA | 0.192

Sequence | TetR repression strength
TCCCCCACAGTGTGAGAGA | 0.205
TCCCGTTTAGTAGGTGAGA | 0.0471
TCCCCGCGAGTTAGGGAGA | 0.421
TCCCTGCGAGTCCTTGAGA | 0.143
TCCCTGTCAGTTAGAGAGA | 0.36
TCCCGTGGAGTCGGAGAGA | 0.359
TCCCCTGGAGTTGGTGAGA | 0.24
TCCCGGGCAGTTACTGAGA | 0.37
TCCCGGGCAGTCCAGGAGA | 0.153
TCCCCTGGAGTCTAGGAGA | 0.246
TCCCATGCAGTTCGGGAGA | 0.178
TCCCGAACAGTTTGGGAGA | 0.157
TCCCCATAAGTTGCCGAGA | 0.0972
TCCCTTTCAGTGACTGAGA | 0.435
TCCCTGGAAGTCTTAGAGA | 0.0949
TCCCGTGTAGTGCTAGAGA | 0.274
TCCCGTAGAGTTAATGAGA | 0.0993
TCCCGAACAGTACGGGAGA | 0.293
TCCCAATAAGTGTAGGAGA | 0.346
TCCCGGTGAGTACAAGAGA | 0.254
TCCCGGCCAGTCTGCGAGA | 0.967
TCCCGGGTAGTTCTTGAGA | 0
TCCCGTACAGTCGTAGAGA | 0.23
TCCCGAGAAGTCATTGAGA | 0.23
TCCCTCTAAGTGCCAGAGA | 0.286
TCCCGGTTAGTTGGCGAGA | 0.223

Sequence | TetR repression strength
TCCCCCTGAGTTTATGAGA | 0.265
TCCCGAAGAGTGTGCGAGA | 0.0738
TCCCTATAAGTGCCTGAGA | 0.162
TCCCCGACAGTCTCTGAGA | 0.23
TCCCGTTAAGTCCTGGAGA | 0.287
TCCCCCGGAGTGATGGAGA | 0.136
TCCCCAACAGTACACGAGA | 0.297
TCCCCGGGAGTGAGTGAGA | 0.157
TCCCGTTCAGTTCAAGAGA | 0.202
TCCCGCAAAGTTGTAGAGA | 0.171
TCCCGCGAAGTAAACGAGA | 0.157
TCCCAGACAGTGGACGAGA | 0.24
TCCCGTAGAGTCACCGAGA | 0.0526
TCCCCTTCAGTTGTCGAGA | 0.528
TCCCACGAAGTTAGGGAGA | 0.155
TCCCTAAGAGTCAGTGAGA | 0.304
TCCCTTTGAGTATGCGAGA | 0.127
TCCCGTCGAGTCTCTGAGA | 0.232
TCCCCATAAGTGTGTGAGA | 0.11
TCCCTGTGAGTGCGCGAGA | 0.132
TCCCCAAAAGTTGGGGAGA | 0.218
TCCCTTGAAGTAATCGAGA | 0
TCCCCAGCAGTATACGAGA | 0.286
TCCCAACGAGTCAGTGAGA | 0.23
TCCCTCGCAGTCAGTGAGA | 0.251
TCCCGGTAAGTGGTTGAGA | 0.266

Sequence | TetR repression strength
TCCCGGTAAGTACAAGAGA | 0.413
TCCCGCTCAGTGCAGGAGA | 0.0948
TCCCTCGTAGTGGGAGAGA | 0.261
TCCCAAAGAGTTGGTGAGA | 0.104
TCCCGGAGAGTATTAGAGA | 0.18
TCCCTTTTAGTTCGAGAGA | 0
TCCCCTTAAGTAGTCGAGA | 0.148
TCCCAACTAGTGCATGAGA | 0.468
TCCCTTTCAGTATAAGAGA | 0.224
TCCCACGTAGTGGGGGAGA | 0.213
TCCCGTCTAGTGTCCGAGA | 0.375
TCCCGCACAGTCTGTGAGA | 0.149
TCCCTACGAGTTGGGGAGA | 0.114
TCCCCTGAAGTACTGGAGA | 0.0389
TCCCCTGAAGTTTCCGAGA | 0.283
TCCCGTTAAGTAGGTGAGA | 0.33
TCCCTGGTAGTCACAGAGA | 0.282
TCCCCAGTAGTACCAGAGA | 0.139
TCCCGCCGAGTCAGGGAGA | 0.225
TCCCAGGGAGTGGCCGAGA | 0.281
TCCCGAGAAGTTTCTGAGA | 0.0814
TCCCGGAGAGTGTTGGAGA | 0.211
TCCCAGTCAGTACTTGAGA | 0.219
TCCCTAAGAGTGGATGAGA | 0.162
TCCCGGCTAGTAGGGGAGA | 0.27
TCCCGGGTAGTGGTAGAGA | 0.272

Sequence | TetR repression strength
TCCCAAACAGTCCGTGAGA | 0.424
TCCCTTTGAGTCTTAGAGA | 0.291
TCCCAGAAAGTGACTGAGA | 0.0441
TCCCTAACAGTTACCGAGA | 0.0473
TCCCGAGCAGTCCGAGAGA | 0.193
TCCCGGGTAGTAGGAGAGA | 0.203
TCCCTATGAGTTCGAGAGA | 0.195
TCCCGGGTAGTTCAGGAGA | 0.161
TCCCCTACAGTGAGAGAGA | 0.293
TCCCACCCAGTCAACGAGA | 0.231
TCCCCATCAGTGGGCGAGA | 0.247
TCCCCTCCAGTGGTGGAGA | 0.253
TCCCTTGTAGTATGAGAGA | 0.071
TCCCACTTAGTGAATGAGA | 0.0683
TCCCGTTTAGTACCAGAGA | 0.196
TCCCAAGGAGTGTAGGAGA | 0.203
TCCCTGCCAGTGCTGGAGA | 0.395
TCCCGTACAGTAGCCGAGA | 0.518
TCCCGTGGAGTGATCGAGA | 0.185
TCCCTGTAAGTACGCGAGA | 0.24
TCCCTCCTAGTGCGAGAGA | 0.151
TCCCCGGAAGTAAGTGAGA | 0.177
TCCCTATCAGTGAGGGAGA | 0.5
TCCCTATAAGTTAAGGAGA | 0.314
TCCCAGGGAGTCCTTGAGA | 0.0841
TCCCACGGAGTCATCGAGA | 0.543
